Here are results for 89 molecules from PubChem BioAssay AID463173 (ICCB-Longwood Screening Facility, Harvard Medical School, 2010).

Hit rate of the full screen: of about 52,000 compounds, about 1,700 (3.3%) were called active. Cut-off read from the data, not from the text of the source: active = survival mostly below about 52% (no sharp cut-off); inactive = mostly above about 56%. This is one part of the list.

For the test, the system named is Wild type. Kind of test: growth inhibition of S. aureus wild type versus tarO mutant, primary screen, teichoic acid synthesis inhibitors, RN4220, OD600 (AID 463173). To be noted: S. aureus RN4220 wild type/DeltatarO growth, OD600, 18 h, active compounds read low, screened at 18.75 µg/mL (by protocol).
Consider `CCOc1ccccc1NC(=O)c1cnc(N2CCOCC2)c2ccccc12`, for which the survival was inactive: 99%. As for `COc1ccc(OCc2nc3c4c(-c5ccc(OC)cc5)c(-c5ccc(OC)cc5)oc4ncn3n2)cc1`, the survival was inactive: 71%. Regarding `CCOC(=O)c1ccc(NC(=O)CSc2nccn2Cc2ccc(OC)cc2)cc1`, the survival was inactive: 85%. For `Cc1cc(C)cc(C(=O)Nc2nnc3n2CCS3)c1`, the survival is inactive: 68%.

Turning to `CC(=O)c1cccc(NC(=O)c2c(C)nn(-c3ccc(F)cc3)c2-n2cccc2)c1`, the survival was inactive: 121%. As for `O=C(CSc1ncc2c(n1)-c1cc(Cl)ccc1N(Cc1ccccc1F)S2(=O)=O)Nc1cccc(C(F)(F)F)c1`, the survival is inactive: 45%.

Consider `CCCCCN1C(C(=O)c2ccccc2)=C(NC(C)=O)c2ccccc2S1(=O)=O`, for which the survival was inactive: 60%. As for `COC(=O)c1cc(NC(=O)c2ccc3c(c2)N(Cc2cccc(Cl)c2)C(=O)c2ccccc2S3=O)cc(C(=O)OC)c1` (centres undefined), the survival was inactive: 75%. Take `CCCn1c2ccccc2c2cnn(CC(=O)Nc3ccc(C)cc3Br)c(=O)c21`: the survival is inactive: 87%.

`Cc1cc2ccccc2n2c(SCC(=O)Nc3cccc(C(F)(F)F)c3)nnc12`: the survival was inactive: 87%. Turning to `Cc1cc(Cl)ccc1OCC(=O)N(Cc1ccc(N(C)C)cc1)CC1CCCO1` (centres undefined), the survival is inactive: 106%. On to `CC(C)Nc1ccc(-c2nc(-c3ccccn3)no2)cc1[N+](=O)[O-]`, for which the survival was inactive: 72%. Under `CCc1ccc(NC(=O)c2sc3nc(C)c(Cl)c(C)c3c2NC(=O)c2ccccc2)cc1` stands inactive: 67%; under `COc1ccc(C)cc1NC(=O)CCNS(=O)(=O)c1cccc2nonc12`, inactive: 59%; under `O=C(CSc1ncn[nH]1)Nc1ccc(F)cc1`, inactive: 127%.

Turning to `Cc1cccc(CNC(=O)c2sc3ncnc(N(C)C4CCCCC4)c3c2C)c1`, the survival is inactive: 64%. Consider `CCN(CC)c1nc(-c2ccccc2Cl)c2cc(Br)ccc2n1`, for which the survival was inactive: 76%. As to `O=C(C1CC1)N1CCN(c2nc3c(F)cc(F)cc3s2)CC1`, the survival is inactive: 124%. Take `Cc1nn(-c2ccccc2)c2nc(C3CC3)cc(C(=O)NCc3ccccc3Cl)c12`: the survival was inactive: 79%.

For `COCCn1c(COc2cccc(OC)c2)nnc1SCC(=O)NC1CCCC1`, the survival is inactive: 98%. For `O=S(=O)(c1ccc(-c2cnc(C3CC3)o2)cc1)N1CCN(c2cccc(Cl)c2)CC1`, the survival is inactive: 71%. With `Cc1cccc(S(=O)Cc2ccc(C(=O)NC3CCCCCC3)o2)c1` (centres undefined) the figure was inactive: 82%. Regarding `CCOc1ccccc1C(=O)Nc1cc(-c2ccc(C)cc2)no1`, the survival was inactive: 89%.

Consider `Cc1ccc(C(=O)Nc2ccc(C(=O)OCc3cc(=O)n4c5c(sc4n3)CCCC5)cc2)cc1`, for which the survival is inactive: 88%. Take `Cc1c(-c2ccccc2)n(-c2ccccc2O)c2nc3c(c(=O)n(C)c(=O)n3C)n12`: the survival was inactive: 75%. With `CCc1cccc(C)c1NC(=O)C1=C(C)C(=O)OC12CCC(C)CC2` (centres undefined) the figure was inactive: 75%; with `CCCOc1ccc(C2=NC(c3ccc(F)cc3)=Nc3ccc(OC)cc3N2)cc1`, inactive: 77%; with `O=C(c1ccc2c(c1)N(Cc1ccccc1)C(=O)c1ccccc1S2=O)N1CCC(Cc2ccccc2)CC1` (centres undefined), inactive: 97%. As to `Cc1ccc2c(c1)c(=O)c(S(=O)(=O)c1ccc(C)c(C)c1)cn2CC(=O)Nc1ccccc1`, the survival was inactive: 73%. As for `COc1ccccc1Nc1ncc(C(=O)Nc2ccc(OC)c(OC)c2)c2ccccc12`, the survival was inactive: 68%. Take `COc1ccc(NC(=O)NCC2CCN(Cc3ccccc3F)CC2)c(OC)c1`: the survival was inactive: 70%.

On to `Cc1ccc(Nc2ncnc3c2nc2n3CCCC2)c(Br)c1`, for which the survival is inactive: 111%. Under `COc1ccccc1CNC(=O)c1cnc2sc(N3CCOCC3)nn2c1=O` stands inactive: 153%; under `COc1ccc(N2CCN(C(=O)Cn3nc(Cc4cccnc4)c4ccccc4c3=O)CC2)cc1`, inactive: 123%; under `Cn1cc(C(=O)NCCc2ccc(Cl)cc2)c(=O)c2cc(S(=O)(=O)N3CCCCC3)ccc21`, inactive: 78%. With `COC(=O)c1ccc(Cn2nnc3c(=O)[nH]c(C4CCCN(S(=O)(=O)c5ccccc5)C4)nc32)cc1` (centres undefined), the survival is inactive: 102%. In the case of `COC(=O)c1cc(S(=O)(=O)N2CCN(c3ccc(F)cc3)CC2)cn1C`, the survival is active: -6%.

In the case of `COc1ccccc1CNC(=O)c1ccc2c(c1)CCN2S(=O)(=O)c1ccc(Cl)cc1`, the survival was inactive: 89%. Consider `COc1ccc2nc(N(Cc3cccnc3)C(=O)COc3ccccc3)sc2c1`, for which the survival was inactive: 72%. Turning to `CCCC(CCC)C(=O)Nc1cccc(-c2nc3cccnc3s2)c1`, the survival was inactive: 88%.

For the molecule `CCc1ccccc1NC(=O)N1CCC2(CC1)Oc1ccccc1C(=O)N2Cc1ccccc1F`, the survival was inactive: 84%.

For the molecule `CCC(=O)Nc1ccc(-c2nn3c(CC)nnc3s2)cc1`, the survival is inactive: 95%. Consider `COc1ccc(CCN2C(=O)N(c3ccc(F)cc3)C(=O)C2CC(=O)Nc2ccc(OC)cc2)cc1` (centres undefined), for which the survival was inactive: 72%. For `CCOc1ccc(C(=O)NCC(c2ccc3c(c2)OCO3)N2CCN(c3ccc(F)cc3)CC2)cc1` (centres undefined), the survival was inactive: 85%. Under `CC(=O)Nc1ccc(NS(=O)(=O)c2ccc3[nH]c4c(c3c2)CCCCC4)cc1` stands inactive: 69%. Under `Cc1ccc(-n2nc3c(N4CCC(C(=O)NCCc5ccccc5C)CC4)nnc(C)c3c2C)cc1` stands inactive: 73%.

As to `CC(C)(C)c1cc(C(C)(C)C)c2oc(=O)c(-c3nc4ccc(C(=O)O)cc4[nH]3)cc2c1`, the survival was inactive: 68%.

In the case of `CCc1ccccc1NC(=O)C(Cc1cccc(OC)c1)c1nn[nH]n1` (centres undefined), the survival is inactive: 105%. In the case of `COc1cc(OC)c(NC(=O)N2CCN3CCCCC3C2)cc1Cl` (centres undefined), the survival is inactive: 83%. As to `Cn1c(/C(C#N)=C/C2CC=CCC2)nc2ccccc21` (centres undefined), the survival is inactive: 114%. Consider `CC1CN(Cn2[nH]c(=O)ccc2=O)CC(C)O1` (centres undefined), for which the survival was inactive: 101%.

For the molecule `Cc1ccc(CN2CCN(C3CCN(C(=O)c4ccc(C)cc4)CC3)C(=O)C2=O)cc1`, the survival was inactive: 77%.

For the molecule `CC1CCN(Cc2c(O)ccc3c(=O)c(-c4ccc(Cl)cc4)c(C(F)(F)F)oc23)CC1`, the survival was inactive: 67%.

In the case of `CCOC(=O)c1cnc2cc(-c3ccc(C)cc3)nn2c1C`, the survival was inactive: 89%. `Nc1nncn1C(=O)COc1ccc(Cl)cc1`: the survival was inactive: 110%. On to `CC(=O)N1CCc2cc(S(=O)(=O)NC(CC(C)C)C(=O)NCCc3ccccc3)ccc21` (centres undefined), for which the survival is inactive: 72%. On to `CCOC(=O)c1ccccc1NC(=O)CSc1cc(C)[nH]c(=O)n1`, for which the survival is inactive: 69%.

As for `COc1ccc(Cl)cc1NC(=O)CCN1C(=O)c2ccccc2Sc2ncccc21`, the survival is inactive: 79%. As to `CC(C)C(=O)N1c2nc(C(C)C)nn2C2(CCCCC2)[C@@H]2CCCC[C@@H]21`, the survival is inactive: 100%. As for `COc1cc(-c2nnc(SCC(=O)Oc3ccccc3)o2)cc(OC)c1OC`, the survival is inactive: 83%.

Take `COc1ccc(OC)c(Nc2ncc3c(n2)CCN(Cc2cc(OC)c(OC)c(OC)c2)C3)c1`: the survival was inactive: 81%.

Consider `Cc1cc(C)c2c(=O)cc(CSc3nnc(-c4ccccc4)n3C)[nH]c2c1`, for which the survival was inactive: 74%. Take `Cc1ccc(Nc2nc3ccccc3c3nnc(C)n23)cc1Cl`: the survival was inactive: 45%. With `CSCCC(NS(=O)(=O)c1cccs1)C(=O)Nc1ccc(C)c(Cl)c1` (centres undefined) the figure was inactive: 81%; with `COC(=O)c1ccc(Cn2c(SCC(=O)NCc3ccccc3)nc3ccccc32)cc1`, inactive: 73%. With `CCOc1ccc(CCNC(=O)c2ccc(CS(=O)(=O)c3ccccc3C)o2)cc1OCC` the figure was inactive: 77%. As for `CCc1ccccc1Nc1ncnc2c1cnn2-c1ccc(Cl)cc1`, the survival is inactive: 66%. With `CCOC(=O)c1cnc2ccc(C(=O)OC)cc2c1Nc1ccc(N2CCOCC2)cc1`, the survival is inactive: 115%. As for `COc1ccc(Cl)cc1NC(=O)c1ncn(-c2ccccc2)n1`, the survival was inactive: 67%. As for `COc1ccc(OC)c(NC(=O)Cc2c(C)n(C(=O)c3ccc(Cl)cc3)c3ccc(OC)cc23)c1`, the survival is inactive: 76%.

As for `CC(=O)c1ccc(NC(=O)CSc2nnc(NC(=O)Nc3ccccc3)s2)cc1`, the survival was inactive: 88%. With `CCc1ccc(NC(=O)Cn2c(=O)n(-c3ccccc3)c(=O)c3ccc(C(=O)NCc4ccc5c(c4)OCO5)cc32)cc1` the figure was inactive: 129%; with `Cc1ccc(C)c(Cn2c(=O)n(Cc3ccco3)c(=O)c3oc4ccccc4c32)c1`, inactive: 96%. On to `CC(=O)c1cccc(NC(=O)CN2C(=O)c3cccnc3Sc3ccccc32)c1`, for which the survival was inactive: 99%. Under `O=C(Nc1ccc(N2C(=O)C=CC2=O)cc1Cl)c1ccco1` stands inactive: 105%. In the case of `CCN1CCOC(=O)C1CC(=O)Nc1ccc(C(C)=O)cc1` (centres undefined), the survival was inactive: 65%. Turning to `COc1cc(CN(C(=O)c2ccc(OC(C)C)cc2)C2CCS(=O)(=O)C2)cc(OC)c1OC` (centres undefined), the survival is inactive: 106%. As for `CCc1ccccc1NC(=O)c1sc2nc3n(c(=O)c2c1C)CCC3`, the survival is inactive: 90%. For `O=C(NCCCc1nc2ccccc2n1Cc1ccccc1)C1CCCCC1`, the survival is inactive: 98%.

Consider `Cc1ccccc1OCc1ccc(-c2nc(C#N)c(N3CCN(c4ccccc4)CC3)o2)o1`, for which the survival is inactive: 124%. Regarding `CC(=O)Nc1ccc(/C(C)=N/NC2=NCCN2)cc1Br`, the survival was inactive: 103%. With `CCOc1ccc(CNC(=O)c2ccc(NC(=O)N3CCSc4ncccc43)cc2)cc1OC`, the survival is inactive: 56%. Turning to `COc1cccc(Cn2c(C)c(CNCc3ccccc3Cl)c(C(=O)O)c2C)c1`, the survival is inactive: 79%. As to `CN(C)c1cc2c(cc1NC(=O)c1ccc(F)cc1)n(C)c(=O)n2C`, the survival was inactive: 106%.

Regarding `CCc1ccc(-c2cc(C)no2)cc1S(=O)(=O)Nc1ccc(C)cn1`, the survival was active: 14%. Under `CC(C)CCNC(=O)C1CCN(S(=O)(=O)c2cccc3nsnc23)CC1` stands inactive: 91%. Regarding `CNC(=O)C1CCN(Cc2cc3ccccc3n2Cc2cccc(C)c2)CC1`, the survival was inactive: 81%. As for `Cc1cccc(-c2nnn3c2nc(NCc2ccccc2)c2ccccc23)c1`, the survival is inactive: 85%. `O=C(Cn1ncc2c3ccccc3n(Cc3ccc(F)cc3)c2c1=O)NCc1ccccn1`: the survival was inactive: 96%.
